# Laboratory results: the supplement of paper PMC8728848
# This is one part of the list.
# B1: PX9961X-pdi-531-24-531 (Parabacteroides distasonis) (protein)
# chain: DLTEEIHSSVIAENYYNNAGEVMAAMMRPWGHFCGTMQVAQSPWSCNELSSDCAAWPQKGRHGYDNGDWIRLHRHQWIPTDGQVVDAWKKLFEGIGYANNFLTDTENIDFEALQVPMSKAQAQAEMRVYRAYCYWYVMDMFGTAPICEKIGEINPSSKSRAELFAWIEKELNESIPSLSESKTETYGRVSKWGAYALLARLYLNAEIYTGQARWDDCIAACDELAKGGFALDKKWNDTFRADNDKRSTEIIWSIVYDEVYAKGMGWYQRWLHYAHQTGWDLQSGPWNGLVTQPTFYDSFADNDLRKIEGFLIGKQYPRKVDENGNYYYDTTAEPLKGSEEYNGQDLVFVNYIKSMTEGEENSGARSIKYEIQPGTTGDMNNDWVMFRYSEVIYNKAEALMRKNGGKATQEVVDMINSVRQRSFKAEDWEKAKYTTATLTMDEFLAEKGREFAFEGIRRTDLVRFNKFVTTSWWDKTASNEPKRNIFPIPQRQLDANANLSPNEANSLF
# Assays:
# Experiment in all cases: glycan array binding signal (z-score within array); higher = stronger binding
# Conditions in all cases: glycan notation: IUPAC condensed, linker removed
# Fuc(a1-3)GlcNAc = molecular target: Fuc(a1-3)GlcNAc
# Method in brief: (§1)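 Glycan array binding is given as a within-array Z-score, which can be read as non-binding when negative. The arrays, 3228 of them, came from the Consortium for Functional Glycomics database and were retained only where the protein sequence was available. Z-scores were averaged across arrays of the same protein sequence at different concentrations or buffers and across linkers.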
# [1] = molecular target: Fuc(a1-3)[Gal(b1-4)]Glc6S
# Method in brief: as §1
# [2] = molecular target: Fuc(a1-3)[Gal(b1-4)]GlcNAc
# Method in brief: as §1
# [3] = molecular target: Fuc(a1-3)[Gal(b1-4)]GlcNAc(b1-2)Man
# Method in brief: as §1
# [4] = molecular target: Fuc(a1-3)[Gal(b1-4)]GlcNAc(b1-2)Man(a1-3)[Fuc(a1-3)[Gal(b1-4)]GlcNAc(b1-2)Man(a1-6)]Man(b1-4)GlcNAc(b1-4)GlcNAc
# Method in brief: as §1
# [5] = molecular target: Fuc(a1-3)[Gal(b1-4)]GlcNAc(b1-2)Man(a1-3)[Fuc(a1-3)[Gal(b1-4)]GlcNAc(b1-2)Man(a1-6)]Man(b1-4)GlcNAc(b1-4)[Fuc(a1-6)]GlcNAc
# Method in brief: as §1
# [6] = molecular target: Fuc(a1-3)[Gal(b1-4)]GlcNAc(b1-3)Gal(b1-3)[Fuc(a1-4)]GlcNAc
# Method in brief: as §1
# [7] = molecular target: Fuc(a1-3)[Gal(b1-4)]GlcNAc(b1-3)Gal(b1-4)[Fuc(a1-3)]GlcNAc
# Method in brief: as §1
# [8] = molecular target: Fuc(a1-3)[Gal(b1-4)]GlcNAc(b1-3)Gal(b1-4)[Fuc(a1-3)]GlcNAc(b1-3)Gal(b1-4)[Fuc(a1-3)]GlcNAc
# Method in brief: as §1
# [9] = molecular target: Fuc(a1-3)[Gal(b1-4)]GlcNAc(b1-3)GalNAc
# Method in brief: as §1
# [10] = molecular target: Fuc(a1-3)[Gal(b1-4)]GlcNAc(b1-6)GalNAc
# Method in brief: as §1
# [11] = molecular target: Fuc(a1-3)[Gal(b1-4)]GlcNAc(b1-6)[Gal(b1-3)GlcNAc(b1-3)]Gal(b1-4)Glc
# Method in brief: as §1
# [12] = molecular target: Fuc(a1-3)[Gal(b1-4)]GlcNAc6S
# Method in brief: as §1
# [13] = molecular target: Fuc(a1-3)[Gal3S(b1-4)]Glc
# Method in brief: as §1
# [14] = molecular target: Fuc(a1-3)[Gal3S(b1-4)]GlcNAc
# Method in brief: as §1
# [15] = molecular target: Fuc(a1-3)[Gal3S(b1-4)]GlcNAc6S
# Method in brief: as §1
# [16] = molecular target: Fuc(a1-3)[GalNAc(b1-4)]GlcNAc
# Method in brief: as §1
# [17] = molecular target: Fuc(a1-3)[GalNAc(b1-4)]GlcNAc6S
# Method in brief: as §1
# Fuc(a1-4)GlcNAc = molecular target: Fuc(a1-4)GlcNAc
# Method in brief: as §1
# Fuc(b1-3)GlcNAc = molecular target: Fuc(b1-3)GlcNAc
# Method in brief: as §1
# Gal(a1-2)Gal = molecular target: Gal(a1-2)Gal
# Method in brief: as §1
# Gal(a1-3)Gal = molecular target: Gal(a1-3)Gal
# Method in brief: as §1
# Gal(a1-3)Gal(b1-3)GlcNAc = molecular target: Gal(a1-3)Gal(b1-3)GlcNAc
# Method in brief: as §1
# [18] = molecular target: Gal(a1-3)Gal(b1-3)GlcNAc(b1-2)Man
# Method in brief: as §1
# [19] = molecular target: Gal(a1-3)Gal(b1-3)GlcNAc(b1-2)Man(a1-3)[Gal(a1-3)Gal(b1-3)GlcNAc(b1-2)Man(a1-6)]Man(b1-4)GlcNAc(b1-4)GlcNAc
# Method in brief: as §1
# [20] = molecular target: Gal(a1-3)Gal(b1-3)GlcNAc(b1-3)GalNAc
# Method in brief: as §1
# [21] = molecular target: Gal(a1-3)Gal(b1-3)GlcNAc(b1-6)GalNAc
# Method in brief: as §1
# [22] = molecular target: Gal(a1-3)Gal(b1-3)[Fuc(a1-4)]GlcNAc(b1-2)Man(a1-3)[Gal(a1-3)Gal(b1-3)[Fuc(a1-4)]GlcNAc(b1-2)Man(a1-6)]Man(b1-4)GlcNAc(b1-4)GlcNAc
# Method in brief: as §1
# Gal(a1-3)Gal(b1-4)Glc = molecular target: Gal(a1-3)Gal(b1-4)Glc
# Method in brief: as §1
# Gal(a1-3)Gal(b1-4)GlcNAc = molecular target: Gal(a1-3)Gal(b1-4)GlcNAc
# Method in brief: as §1
binder,measurement,setting,value
B1,glycan array binding signal (z-score),Fuc(a1-3)GlcNAc,-0.392
same,glycan array binding signal (z-score),[1],0.852
same,glycan array binding signal (z-score),[2],-0.632
same,glycan array binding signal (z-score),[3],-0.722
same,glycan array binding signal (z-score),[4],-0.76
same,glycan array binding signal (z-score),[5],0.695
same,glycan array binding signal (z-score),[6],0.132
same,glycan array binding signal (z-score),[7],-0.525
same,glycan array binding signal (z-score),[8],0.016
same,glycan array binding signal (z-score),[9],-0.752
same,glycan array binding signal (z-score),[10],0.157
same,glycan array binding signal (z-score),[11],-0.143
same,glycan array binding signal (z-score),[12],0.02
same,glycan array binding signal (z-score),[13],0.374
same,glycan array binding signal (z-score),[14],-0.162
same,glycan array binding signal (z-score),[15],-0.332
same,glycan array binding signal (z-score),[16],-0.216
same,glycan array binding signal (z-score),[17],0.062
same,glycan array binding signal (z-score),Fuc(a1-4)GlcNAc,-0.106
same,glycan array binding signal (z-score),Fuc(b1-3)GlcNAc,-0.274
same,glycan array binding signal (z-score),Gal(a1-2)Gal,-0.905
same,glycan array binding signal (z-score),Gal(a1-3)Gal,0.005
same,glycan array binding signal (z-score),Gal(a1-3)Gal(b1-3)GlcNAc,-0.509
same,glycan array binding signal (z-score),[18],0.703
same,glycan array binding signal (z-score),[19],3.82
same,glycan array binding signal (z-score),[20],-0.241
same,glycan array binding signal (z-score),[21],-0.644
same,glycan array binding signal (z-score),[22],1.94
same,glycan array binding signal (z-score),Gal(a1-3)Gal(b1-4)Glc,0.702
same,glycan array binding signal (z-score),Gal(a1-3)Gal(b1-4)GlcNAc,-0.035
